# The other results are listed elsewhere or left out. Most values come without repeats; read them as rough.
# What was measured:
# Experiment in all cases: cell count relative to DMSO control; melanoma cells; higher = more viable cells
# Settings in all cases: library dose: low library concentration; 72 h
# WM115 = tested on: WM115
# WM1716 = tested on: WM1716
# WM1745 = tested on: WM1745
# WM3526 = tested on: WM3526
# WM3619 = tested on: WM3619
# WM451Lu = tested on: WM451Lu
# 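Further: cell number obtained by counting DAPI-stained nuclei in high-throughput microscope images with image analysis software, screen run in 1,536-well plates.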
SMILES,cell count (WM115),cell count (WM1716),cell count (WM1745),cell count (WM3526),cell count (WM3619),cell count (WM451Lu)
"O=C(Nc1cc(C(F)(F)F)cc(C(F)(F)F)c1)c1cc(Cl)ccc1O + Cc1ccc(Nc2nccc(N(C)c3ccc4c(C)n(C)nc4c3)n2)cc1S(N)(=O)=O [Pazopanib] (first compound 0.016 µM, partner dose 0.4 µM)",104%,85.1%,95.9%,109%,109%,117%
"O=C(O)c1ccc2c(c1)nc(Nc1cccc(Cl)c1)c1ccncc12 + CO[C@@H]1[C@H](N(C)C(=O)c2ccccc2)C[C@H]2O[C@]1(C)n1c3ccccc3c3c4c(c5c6ccccc6n2c5c31)C(=O)NC4 [Midostaurin] (first compound 0.4 µM, partner dose 0.08 µM)",88.9%,71%,82%,31.5%,81%,98%
"O=C(Nc1ccccc1)c1cc([N+](=O)[O-])ccc1Cl + O=C1NC(=O)/C(=C/c2ccc(-c3ccc(F)cc3O)o2)S1 [AS252424] (first compound 2 µM, partner dose 1 µM)",110%,104%,94.4%,103%,92%,111%
"O=C(Nc1cc(C(F)(F)F)cc(C(F)(F)F)c1)c1cc(Cl)ccc1O + CN(C)S(=O)(=O)c1ccc2c(c1)/C(=C/c1cc3c([nH]1)CCCC3)C(=O)N2 [SU6656] (first compound 0.016 µM, partner dose 0.4 µM)",70.7%,111%,94.2%,69.3%,118%,76.3%
"O=C(O)c1ccc2c(c1)nc(Nc1cccc(Cl)c1)c1ccncc12 + NC(=O)Nc1cc(-c2cccc(F)c2)sc1C(=O)N[C@H]1CCCNC1 [AZD7762] (first compound 0.4 µM, partner dose 0.02 µM)",116%,84.1%,106%,69.4%,112%,83.3%
"O=C(Nc1ccccc1)c1cc([N+](=O)[O-])ccc1Cl + Oc1cc(-c2nc(-c3ccccc3)[nH]c2-c2ccncc2)ccc1Cl [L779450] (first compound 2 µM, partner dose 0.2 µM)",80.7%,119%,90.5%,87.5%,82.7%,98.1%
"O=C(O)[C@@H]1[O][Sb](=[O])([O][Sb]2(=[O])[O][C@H]([C@H](O)CO)[C@H](O)[C@H](C(=O)O)[O]2)[O][C@H]([C@H](O)CO)[C@@H]1O (some centres undefined) [stibogluconate] + CO[C@H]1C[C@@H]2CC[C@@H](C)[C@@](O)(O2)C(=O)C(=O)N2CCCC[C@H]2C(=O)O[C@H]([C@H](C)C[C@@H]2CC[C@@H](OCCO)[C@H](OC)C2)CC(=O)[C@H](C)/C=C(\C)[C@@H](O)[C@@H](OC)C(=O)[C@H](C)C[C@H](C)/C=C/C=C/C=C/1C [everolimus] (first compound 2 µM, partner dose 0.02 µM)",84.2%,78.4%,96.9%,70.7%,94.2%,78.7%
"O=C(Nc1cc(C(F)(F)F)cc(C(F)(F)F)c1)c1cc(Cl)ccc1O + NC(=O)c1ccc(N(C(N)=O)c2c(F)cccc2F)nc1-c1ccc(F)cc1F [VX702] (first compound 0.016 µM, partner dose 0.4 µM)",104%,113%,98.3%,103%,97.9%,74.4%
"O=C(O)c1ccc2c(c1)nc(Nc1cccc(Cl)c1)c1ccncc12 + COc1cc(N2CCC(N3CCN(C)CC3)CC2)ccc1Nc1ncc(Cl)c(Nc2ccccc2S(=O)(=O)C(C)C)n1 [NVP-TAE684] (first compound 0.4 µM, partner dose 0.08 µM)",101%,58.9%,90.8%,91.3%,93%,84.6%
"Cn1nnc2c(C(N)=O)ncn2c1=O [temozolomide] + CN(C)S(=O)(=O)c1ccc2c(c1)/C(=C/c1cc3c([nH]1)CCCC3)C(=O)N2 [SU6656] (first compound 2 µM, partner dose 0.4 µM)",79.5%,97.8%,92.4%,101%,94.4%,98.3%
"Cn1nnc2c(C(N)=O)ncn2c1=O [temozolomide] + O=C(O)C(=O)Nc1sc2c(c1C(=O)O)CCNC2 [TCS401] (first compound 2 µM, partner dose 1.66667 µM)",102%,87.5%,87%,117%,124%,121%
"O=C(Nc1cc(C(F)(F)F)cc(C(F)(F)F)c1)c1cc(Cl)ccc1O + CCc1ccc(CCOc2ccc(CC3SC(=O)NC3=O)cc2)nc1 [pioglitazone] (first compound 0.016 µM, partner dose 2 µM)",105%,97.8%,84%,105%,86.2%,86.9%
"O=C(Nc1cc(C(F)(F)F)cc(C(F)(F)F)c1)c1cc(Cl)ccc1O + CO[C@@H]1[C@H](N(C)C(=O)c2ccccc2)C[C@H]2O[C@]1(C)n1c3ccccc3c3c4c(c5c6ccccc6n2c5c31)C(=O)NC4 [Midostaurin] (first compound 0.016 µM, partner dose 0.08 µM)",67.6%,84%,77.8%,81.6%,102%,89.5%
"O=C(O)[C@@H]1[O][Sb](=[O])([O][Sb]2(=[O])[O][C@H]([C@H](O)CO)[C@H](O)[C@H](C(=O)O)[O]2)[O][C@H]([C@H](O)CO)[C@@H]1O (some centres undefined) [stibogluconate] + C=C(c1ccc(C(=O)O)cc1)c1cc2c(cc1C)C(C)(C)CCC2(C)C [Bexarotene] (first compound 2 µM, partner dose 2 µM)",101%,85.8%,78.2%,96.4%,96.7%,78.8%
"O=C(O)c1ccc2c(c1)nc(Nc1cccc(Cl)c1)c1ccncc12 + COc1ccc(COc2ccc(Cc3cnc(N)nc3N)cc2OC)cc1 [GW2580] (first compound 0.4 µM, partner dose 1 µM)",92.2%,84.4%,92.7%,73.9%,122%,90%
"O=C(Nc1ccccc1)c1cc([N+](=O)[O-])ccc1Cl + COc1cc2ncnc(Nc3ccc(Oc4ccccc4)cc3)c2cc1OC [SrcI1] (first compound 2 µM, partner dose 2 µM)",105%,109%,75.8%,81%,89.5%,122%
"O=C(Nc1cc(C(F)(F)F)cc(C(F)(F)F)c1)c1cc(Cl)ccc1O + Nc1nc(F)nc2c1ncn2[C@@H]1O[C@H](CO)[C@@H](O)[C@@H]1O [fludarabine] (first compound 0.016 µM, partner dose 0.2 µM)",85%,139%,125%,30.8%,86.8%,56%
"O=C(Nc1cc(C(F)(F)F)cc(C(F)(F)F)c1)c1cc(Cl)ccc1O + Cn1cncc1[C@@](N)(c1ccc(Cl)cc1)c1ccc2c(c1)c(-c1cccc(Cl)c1)cc(=O)n2C [tipifarnib] (first compound 0.016 µM, partner dose 0.01 µM)",83.1%,78.7%,94.7%,89.4%,93.3%,93.8%
"O=C(Nc1cc(C(F)(F)F)cc(C(F)(F)F)c1)c1cc(Cl)ccc1O + OCCn1cc(-c2cnc3nnn(Cc4ccc5ncccc5c4)c3n2)cn1 [PF04217903] (first compound 0.016 µM, partner dose 1 µM)",106%,107%,126%,98.8%,97.3%,123%
"O=C(Nc1cc(C(F)(F)F)cc(C(F)(F)F)c1)c1cc(Cl)ccc1O + Cn1nnc2c(C(N)=O)ncn2c1=O [temozolomide] (first compound 0.016 µM, partner dose 2 µM)",93%,87.1%,86.2%,95.5%,98.1%,90.6%
"Cn1nnc2c(C(N)=O)ncn2c1=O [temozolomide] + NC(=O)Nc1cc(-c2cccc(F)c2)sc1C(=O)N[C@H]1CCCNC1 [AZD7762] (first compound 2 µM, partner dose 0.02 µM)",85.6%,92%,97.3%,92.2%,51%,119%
"O=C(Nc1ccccc1)c1cc([N+](=O)[O-])ccc1Cl + Cn1cc(/C=C2\C(=O)Nc3cccnc32)c2ccccc21 [GW441756] (first compound 2 µM, partner dose 0.4 µM)",115%,89.7%,89.9%,116%,107%,113%
"O=C(Nc1cc(C(F)(F)F)cc(C(F)(F)F)c1)c1cc(Cl)ccc1O + CS(=O)(=O)CCNCc1ccc(-c2ccc3ncnc(Nc4ccc(OCc5cccc(F)c5)c(Cl)c4)c3c2)o1 [lapatinib] (first compound 0.016 µM, partner dose 0.8 µM)",103%,96.9%,86%,97.9%,97.2%,104%
"O=C(O)c1ccc2c(c1)nc(Nc1cccc(Cl)c1)c1ccncc12 + O=C(Nc1ccccc1)c1cc([N+](=O)[O-])ccc1Cl [GW9662] (first compound 0.4 µM, partner dose 2 µM)",97.1%,112%,88%,87.9%,87.2%,85.1%

# Source: the supplement of paper PMC4604168 (melanoma cell lines)
